In the supplement of paper PMC11417369:
The list shows a part of the results.

System: PF3D7_0420300 AP2 domain 1 (GST-tagged)
Assay: gcPBM binding intensity (ln(normalized median fluorescence intensity)); higher = stronger DNA binding
Procedure, shortened: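 DNA-binding domains from P. falciparum, fused to GST and produced in E. coli, were put on an Agilent 4 × 180k double-stranded probe array for 1 h in 1× PBS holding 1% milk, 0.2 mg/ml BSA, 0.5% salmon testes DNA and 0.03% Triton X-100. Probes were primer-extended, 36 bp long and drawn from intergenic genomic regions, with negative controls included. After Alexa488 anti-GST antibody detection and a 488 nm scan, binding intensity was set as the highest Masliner-normalised natural-log median intensity across replicate spots of either probe orientation.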

Sequence | gcPBM binding intensity (ln)
AAAAAAAAAAAAAAAAAAAAAAAAAAAAAAAAAAAT [CACACA_negctrl_site882] | 9.63
ATATAAAGAAATTAATTTTTCAACAATAAAAATATA [CACACA_negctrl_site1262] | 9.01
ATATTTTGTAATATTTGTACATATATTATACATATA [XGTACX_site963] | 9.33
AATAATGTATAATGATGTACAAAAAAGGAAGACATA [XGTACX_site2474] | 9.72
TTTTTTTTGCGTACAGTGCAAATTTATTTACTATTC | 9.21
TACATCGGTATATAAACACACAACAAAAATGCTTAC [CACACA_site5983] | 9.56
AAAATAATTAAAAAAAGTACTCGTAATATAAATATA [XGTACX_site4967] | 9.38
TTAAAAGATATTACATGTACATATTCAATATATGTA [XGTACX_site5895] | 9.11
ACAAATAAATAAAAATGTACAAATGAATACATCTTA [XGTACX_site3780] | 9.24
TTTTTTTAAAAAAACAAAAAAAAAAAAAATATAAAA [TGCATGCA_negctrl_site511] | 8.89
CGTGGGAGCGGACACACACACACACCCATATATATA [CACACA_site4340] | 10.1
TATACATATTATATATGTACACATATTATATGTATA [XGTACX_site5851] | 9.17
TCAACAAATAAACTTTGTACATATATACAAAATATA [XGTACX_site4447] | 8.97
AATTTAAAAGCTTGTGGTACTTTTGCTCTTCCTTTG [XGTACX_site3148] | 9.31
ATACAAAAAAGAAGGACACACAGAAGTAACATGTTA [CACACA_site3074] | 9.91
TAACATGATATATAATGTACATATAAGATATTTATA [XGTACX_site4383] | 9.09
ATGAATTATATATTATGTACATATAATTAAAATATA [XGTACX_site7140] | 9.12
TTTAAAAAAAAAAAAAAAAATTAAATGAATTATTAA [CACACA_negctrl_site1121] | 8.55
AAATATAATAATATATGTACATATATATATATATAT [XGTACX_site6980] | 9.06
AAAAAAATATATATATATATATATATATATATATAT [TGCATGCA_negctrl_site7] | 8.75
AAAAAAAAAAAAAAAGGTACAGTAAAAAATTCCTCT [XGTACX_site5947] | 8.98
AAATTTAATTTTATATCACACATTAAATTTTAATGG [CACACA_site4251] | 9.04
ATAACATAACATAATACACACATATAAAAAAGAAAT [CACACA_site3028] | 10.1

Sequence | gcPBM binding intensity (ln)
ATATAATATATTTTCACACATATTTTATGATGATAA [CACACA_site5614] | 9.1
TATGTAAAAAGAGAAAAAAAAAAGAACGATAATTTC [CACACA_negctrl_site946] | 9.44
ATATAAGAATTTAAGAGTACATTCACTTCAAATTTA [XGTACX_site2115] | 9.02
AGGTGTATCATAAAATGTACATACATACATACATAA [XGTACX_site4479] | 9.33
TTGTAATTCATTCAAATATAAAATAAATAAATATGA [CACACA_negctrl_site349] | 8.98
AAAATGTGCTTTTCAGTGCAATTTTTTTTGTAATAA [GTGCAC_site9566] | 8.82
TATTATTATTTTTTATGTACTAACGACAAAAATATT [XGTACX_site252] | 9.05
AGCAACCCCCTAGCTACACACATATAGATATATATA [CACACA_site951] | 9.86
TATATATTATACACGTGTACACATTATAACAATATA [XGTACX_site7799] | 9.27
TTTCCCTTAAATTAATGTACATAAATTGAAAATACC [XGTACX_site1602] | 9.08
TAAAATTTTTTTGTTTGTACATATATATATATAATA [XGTACX_site5609] | 9.11
AAAAAAATAAATAAATACATACATATATATATGTAT [GTGCAC_negctrl_site510] | 9.24
AAAAAAAAAAAACACACACACAAAAAAAAATATATA [CACACA_site1105] | 10.1
TTGCCCCAGGAGTTCACACACATAATAGATTGTCAC [CACACA_site726] | 9.68
TACGTGAAATTATATACACACATAAATATGTCTGTA [CACACA_site3122] | 9.39
AAGCTACACATAGATTATTATTAATTTAATGTATAT [CACACA_negctrl_site548] | 9.1
ACAAGCTTTCATAAGGTGCAATGATTTAACAAAAAA [GTGCAC_site9726] | 8.87
AATTATTAGCGTGGTGTGCACAAAATTATGGACACA | 9.58
TATAAAAATAATATTACACACATGTAAAATGTCGGT [CACACA_site3264] | 9.54
AGCATTTATGAAAAATGTACACACATCAAATGCTTA [XGTACX_site8749] | 9.25
ACACATGACATCCGTTGTACAATCATCATAAAAATG [XGTACX_site5397] | 9.28
CGTATAAATAAATACACACACATATAAATATGTAAA [CACACA_site6236] | 9.74
TAATATATTGTAGATGCATGCATTAACTATTACAAA [TGCATGCA_site190] | 9.15

Sequence | gcPBM binding intensity (ln)
TATCAATGGAAAATATATATTTGTATATATGTAATA [XGTACX_negctrl_site257] | 9.16
GTATTATACCATAATGCATGTTAACTTCAAAAGAAA [TGCATGCA_site839] | 9.08
GAAATTATTATATAAACACACATTTATTTTATTTTA [CACACA_site1957] | 9.29
ATAATCCTTAAACACACACACACACTAATAAATAAA [CACACA_site8052] | 10.2
TTGTTTCCTTAATATTCACACACATATATATAATAT [CACACA_site8553] | 9.68
ATAAAAATTAAAGAATGTACACATATAATATATGTA [XGTACX_site8735] | 9.21
AAAAGTTATAGACACACACACATATAAATATAGATT [CACACA_site6617] | 10
TATAAATGTATACAAGTGCATATTATTCACACATAA | 9.34
GGATATATTTTATGTACACACATATATAACGGATAT [CACACA_site4847] | 9.57
TTTTAAAAAAATAAATAAATAGAAAAAAAAAATAAA [TGCATGCA_negctrl_site579] | 9.18
TATTATGACTTAAGTTGTACTGTTGAAAGAAGAAAA [XGTACX_site2985] | 9.05
TTGTGTAAATGTTAAGTGCATTTGGTAAAATATAAA [GTGCAC_site9699] | 9.16
ATGATATGCAATTTAGTGCATAACAAAATTGGTATA | 9.16
AAAAAAAAAAAAAAAACACACATACCCATATATTTT [CACACA_site6013] | 9.47
TTTTTCTTTTTTTGGGGTACAGGGAAATCTATATTT [XGTACX_site7025] | 9.22
TCTTAATTTTTGAAGGTACACACTAATATATTAAAT [CACACA_site1191] | 9.18
TGTGTATACTTGTGTATACCAAATTAAAGACGCTTT [CACACA_negctrl_site1359] | 9.02
AAAAAATAAAAAAGGTGGTCATGTCACAAATACTTT [XGTACX_site7454] | 9.6
TAAAAGTGATATGTTCGTACGTATTTATATGTAATA [XGTACX_site211] | 9.14
TCTCCATCTTATGAGACATGCACTTTTTATTTAATA [TGCATGCA_site121] | 9.21
AACTCATCTTATAATTGTACATATTTATAAAAAGTA [XGTACX_site6522] | 9.02
TGTAGAAATGGGTGCACACACATATATAATATATAT [CACACA_site2507] | 9.68
AAAAAAAAAAAAAAAAAAAAAAAAAAAAAATATATA [GTGCAC_negctrl_site6] | 9.42

Sequence | gcPBM binding intensity (ln)
TTAGGGATGCTGAAATGTACACATTTAAATTATATA [XGTACX_site3000] | 9.09
AATGTAAAACTAATATGTACATATCTCTAAAGAAAT [XGTACX_site8429] | 9.32
CGTACTAACATAAAGACACACACCACATATAATAAA [CACACA_site3603] | 9.72
ATTGTCTTCCTTCTGGTGCGATGTATAGGTAAAGAT | 9.17
CCATAAAAAGGTACATGTACAAAAAGCAAAAATATG [XGTACX_site5543] | 9.52
ATATTTTTCCAACATCGTACATTATGAGTCAAAATT [XGTACX_site993] | 9.24
TTTCTTATCAACCTTTTTTTTTTTTTTTTATTCTTA [TGCATGCA_negctrl_site162] | 9.28
AATTTAATTTTTTCGTGTACTTATATAGGAGGTTTT [XGTACX_site8310] | 9.19
CAATTAAAGATATGAACACACATGTGAACTTTCTAT [CACACA_site7796] | 9.48
CCCATATTATAGGTGTGTACATAAAAGTATATATAA [XGTACX_site3629] | 9.36
AGAAGAAATATGTAAAAAATTTTATATTCACACACA [GTGCAC_negctrl_site441] | 9.54
TGTTCTTATACTAATAGTACTTTTAGGTACTATAAA [XGTACX_site2954] | 9.09
TGTAGACATTAATGTAGTACAATATATATATATATT [XGTACX_site8608] | 9.34
TTTATATATAATGTTGCATGTCAAATTTGTATATGG [TGCATGCA_site246] | 9.2
AAAATTGGTGAAAATGAAAATATGATTATATGTATA [XGTACX_negctrl_site505] | 9.27
CCATAAAACTATAATACACACATATAGATTAACATA [CACACA_site7849] | 9.7
TGATAAGAAAAAGACTTTTCCTTCTTACTTTCTATG [CACACA_negctrl_site782] | 9.08
CAAAATAAATAATTTGGTACACATAAAAAAAAAAAA [XGTACX_site8380] | 9.15
AATAATGTTTTTATATCACACACAAATATTAAATGA [CACACA_site8074] | 9.43
ATTACGATAGAGAAATGTACATATATATATGTAAGT [XGTACX_site1200] | 9.51
